Results reported in the supplement of paper PMC10338343.
± gives the standard deviation. In all, about 6,600 sequences were measured (“pre-steady-state target cleavage rate”: median about 0.07, highest 2% from about 0.72 on). The entries are a selection whose mix differs from that of the whole data set.

System: MIWI (PIWIL1) piRISC loaded with Kctd7 piRNA (30 nt)
Assay: pre-steady-state target cleavage rate (min^-1); MIWI and MILI are mouse PIWI proteins and EfPiwi is from a freshwater sponge; tags in brackets are library labels; higher = faster piRNA-guided slicing of the target
Conditions: guide: Kctd7 piRNA 5'p-UGUUAAUCUCUCAGAGAAGGUGACAGUGAU; auxiliary factor: 500 nM mouse GTSF1
How it was run: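 At 33 °C in HEPES–potassium acetate buffer, a transcribed, DNA-blocked target RNA library […] was exposed for 0–8 or 0–960 min to 1 nM active affinity-purified piRISC carrying a single synthetic guide, with or without 500 nM GTSF1 partner protein. Uncleaved targets were sequenced and normalised to depth and to weakly complementary targets. With three trials pooled and k3 capped at 0.0001 min^-1, a burst-and-steady-state fit produced the pre-steady-state cleavage rate.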
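Also: 1 nM active piRISC with 0.1 nM target library at 33 °C single turnover.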

Point of comparison: UAGUGACUCAGCUUCUCAGAGAGAUUAACA, “pre-steady-state target cleavage rate” value 0.0145 ± 0.004. Against it:
- UUCACUGUCACCUUCUCUCUGAGAUUAACA — higher, 0.0263 ± 0.0076
- UAGUCUGUCACCUUCUCUGACUCAUUAACA — lower, 0.00675 ± 0.002
- UAGUGACAGUCCUUCUCUGAGAGAUUAUACA — within error, 0.0212 ± 0.0053
- AUCACUGACACCUUCACUGAGAGAUUAACA — higher, 0.502 ± 0.028
- UAGUGAGUCUCCUUCUCUGAGAGAAUAACA — higher, 0.212 ± 0.035
- UUCACUCACACCUUCUCUGAGAGAUUAACA — higher, 0.546 ± 0.025
- AUCACUGUCACUUUCUCUGAGAGAUUAACA — higher, 0.794 ± 0.04
- UAGACUGUGACGUUCUCUGAGAGAUUAACA — higher, 0.409 ± 0.027
- UAGUGACACACCUUCUCUGAGAGAAAAACA — higher, 0.0637 ± 0.015
- UAGUGACAGACCUACUCUGUGAGAUUAACA — lower, 0.0059 ± 0.0034
- UAGUGUGUCACCUUCUCUGAGAGAUAUAACA — higher, 0.297 ± 0.029
- UAGUCUGUCACCUUCUCUGAGAGAUGAACA — higher, 0.174 ± 0.028
- AUCACAGUCACCUUCACUGAGAGAUUAACA — higher, 0.518 ± 0.033
- UAGUCUGUGACGUUCUCUGAGAGAUUAACA — higher, 0.5 ± 0.036
- UUCACUGUCACCUUGUCUCAGAGAUUAACA — higher, 0.0331 ± 0.0048
- UACACUGUCACCUUCUCUGAGAGUAAAUGA — higher, 0.0785 ± 0.035
- UAGUCUGUCACCUUCUGAGAGAGAUUAACA — higher, 0.0517 ± 0.0069
- AUCACAGUCACCUUGUCUGAGAGAUUAACA — higher, 0.444 ± 0.071
- AUCACUGUCACCUUCUCUGAGAGAUGUAACA — higher, 0.385 ± 0.047
- UUCACUGUCACCUUCUCUGAGACAUUAUGA — within error, 0.00809 ± 0.004
- UAGUGACACAGCAUCUCUGAGAGAUUAACA — within error, 0.012 ± 0.0033
- UACACUGUCACCUUCUCUGAGAGAAUAACA — higher, 0.323 ± 0.056
- UAGUGUGUCACCUUCUCUCGAGAGAUUAACA — higher, 0.338 ± 0.097
- AUCACUGUCACACUUCUCUGAGAGAUUAACA — higher, 0.619 ± 0.035
- UAGACAGUCACGUUCUCUGAGAGAUUAACA — higher, 0.651 ± 0.032
- UUCACAGUCUCCUUCUCUGAGAGAUUAACA — higher, 0.503 ± 0.031
- UAGUCUGUCACCUUCACUGAGAGAUUAAGA — higher, 0.0904 ± 0.024
- UUCACUUGUCACCUUCUCUGAGAGAUUAACA — higher, 0.63 ± 0.09
- UACACUGUCACCUUCUCUGCGAGAUUAACA — higher, 0.406 ± 0.04
- UACACUGUCACGUUCUCUGAGAGAAUAACA — higher, 0.186 ± 0.033
- UAGACAGUCACCUUCUCUCAGAGAUUAACA — higher, 0.0846 ± 0.0083
- UAGUGACAGACCUACUCUGAGACAUUAACA — lower, 0.00519 ± 0.004
- UUCACAGUCACCUUGUCUGAGAGAUUAACA — higher, 0.273 ± 0.044
- UAGAGCUGUCACCUUCUCUGAGAGAUUAACA — higher, 0.706 ± 0.047
- UUCACUGUCACGAUCUCUGAGAGAUUAUGA — higher, 0.0352 ± 0.011
- UAGACUGUCACGUUGUCUGAGAGAUUAACA — higher, 0.485 ± 0.031
- AUCACUGUCACGUACUCUGAGAGAUUAACA — higher, 0.536 ± 0.045
- UACUCUGUCACCUUCUCUGAGAGAUAAACA — higher, 0.304 ± 0.03
- AUCACUGUCAGCUUGUCUGAGAGAUUAACA — higher, 0.713 ± 0.029
- AUCACUGUCACCUUCUACUGAGAGAUUAACA — higher, 0.264 ± 0.078
- UAGUCUGUCACCUUCUCUGAGUCUUUAACA — lower, 0.00377 ± 0.0028
- UACACUGUCACCUUCUCUGACGAGAUUAACA — within error, 0.0169 ± 0.0072
- UAGUGACAGUGCUUCUCUGACUCUAAUUGA [g11:g19:cont:t1A] — lower, < 0.0001
- UAGUGACAGUGGAUCUCUGAGGAUUAACA — lower, < 0.0001
- UACACAGUCACCUUCUCUGAGAGAUUUUGA — higher, 0.0801 ± 0.02
- UAGUGUGUCACCUUCUCUGAUAGAUUAACA — higher, 0.574 ± 0.029
- UAGUGAGUCAGCUUCUCUGAGAGAUUUUGA — lower, 0.00552 ± 0.0027
- AUCACUGUCACCUUCUCUGAGACAUUUACA — higher, 0.034 ± 0.011
- UAGUGACAGACCUUCUCUGAGAGAUCUAACA — higher, 0.0341 ± 0.0089
- UACACUGUCACCUUCUCAGAGAGAUUAAGA — higher, 0.0543 ± 0.013
- UACACUGUCAUCUUCUCUGAGAGAUUAACA — higher, 0.694 ± 0.031
- UAGUCUGUCAGCUUCUCUGAGAGAUUAUGA — within error, 0.0074 ± 0.0033
- UUCACUGUCACCUACUCUGAGAGAUUUUGA — higher, 0.0565 ± 0.015
- AUCACUGUCACGUUCACUGAGAGAUUAACA — higher, 0.44 ± 0.025
- UAGUGAGUCACCAUCUGUGAGAGAUUAACA — higher, 0.347 ± 0.031
- UUCACUGUCACCUUCUGAGAGAGAUUUUGA — higher, 0.067 ± 0.022
- UAGUGACUGACCAUCUCUGAGAGAUUAACA — higher, 0.0536 ± 0.0083
- UAGUCUGUCACCUACUCUGAGAGAUUUACA — higher, 0.331 ± 0.051
- UAGUGACUCACCUUCUCUGAGAAGAUUAACA — within error, 0.00937 ± 0.0034
- UAGUGACAGUGGAAGAGAGAGAGAUUAAGCA — lower, < 0.0001
- UAGUGACAGUGCUUCUCUGAGAGAUUAAGA — lower, 0.00478 ± 0.0025
- UAGUGACUCACCUUCUCUGAGAGAUUAUGA — higher, 0.106 ± 0.015
- UAGUGUGUCACCUUCUGUGAGAGUUUAACA — higher, 0.124 ± 0.022
- UAGUGACUGACCUUCUCUGAGAGAUUAUCA — higher, 0.215 ± 0.04
- UAGUGACACACCUUCUCAGAGAGAAUAACA — within error, 0.0148 ± 0.0069
- UAGUGAGUCACCUUCUCUCACAGAUUAACA — within error, 0.00753 ± 0.0042
- UAGACUGUCACCUUCUGUGAGAGAUUAUCA — higher, 0.0739 ± 0.011
- UAGUCUGUCACCUUCUCUGAGACAUUUACA — higher, 0.0397 ± 0.012
- UAGACUGUCACCUUCUCUCAGAGAUUAAGA — higher, 0.0494 ± 0.0095
- UAGUGUCUCACCUUGUCUGAGAGAUUAACA — higher, 0.17 ± 0.031
